This note sets out measurements from US20080044436A1 (published 2008).

For this assay, the target named is T1, Sp1 transcription factor (UniProt P08047 1-785, limits assumed).
T1 construct: In the pull-down it was 35S-labelled and synthesized in vitro in rabbit reticulocyte lysate; In the reporter assays it was expressed in HeLa cells from pcDNA3-Sp1; also called 35S-[Sp1]; 35-[S]-Sp1
Briefly: GST pull-down on glutathione-Sepharose with 35S-labelled Sp1.

T1 sequence (P08047 whole entry): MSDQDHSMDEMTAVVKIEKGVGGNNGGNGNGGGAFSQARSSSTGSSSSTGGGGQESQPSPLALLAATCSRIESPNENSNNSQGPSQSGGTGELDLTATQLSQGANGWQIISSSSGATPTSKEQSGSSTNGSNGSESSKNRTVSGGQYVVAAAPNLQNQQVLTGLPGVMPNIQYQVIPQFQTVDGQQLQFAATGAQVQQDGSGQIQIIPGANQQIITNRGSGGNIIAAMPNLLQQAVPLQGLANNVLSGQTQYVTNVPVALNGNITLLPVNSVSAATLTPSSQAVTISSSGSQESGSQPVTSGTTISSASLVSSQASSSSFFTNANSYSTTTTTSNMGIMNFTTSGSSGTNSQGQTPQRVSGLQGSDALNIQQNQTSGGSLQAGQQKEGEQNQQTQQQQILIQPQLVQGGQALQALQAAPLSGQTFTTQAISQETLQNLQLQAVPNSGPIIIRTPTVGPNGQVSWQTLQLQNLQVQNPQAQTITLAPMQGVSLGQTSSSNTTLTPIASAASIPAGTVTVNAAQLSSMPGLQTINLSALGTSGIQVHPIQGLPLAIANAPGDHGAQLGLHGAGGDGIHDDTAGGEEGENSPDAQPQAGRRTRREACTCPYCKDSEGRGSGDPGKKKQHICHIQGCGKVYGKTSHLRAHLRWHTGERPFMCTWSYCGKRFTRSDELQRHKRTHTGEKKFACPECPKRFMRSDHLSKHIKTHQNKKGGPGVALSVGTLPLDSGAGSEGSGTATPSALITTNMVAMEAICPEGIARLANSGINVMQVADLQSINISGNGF

B1: GST protein (other)
chain: not shown
notes: Negative control in the pull-down assays; also called GST alone
For the molecule B1, the binding result is given as “no binding”.
